# Experimental data reported in PubChem BioAssay AID488969 (Vanderbilt High Throughput Screening Facility, 2010).
# Whole data set: some 110,000 compounds, median “z-score” near -0.1, cut for the highest 2% near 2. Some of the results follow.
# Molecular target: Metabotropic glutamate receptor 8 (Rattus norvegicus) (UniProt P70579)
# Assay: rat mGluR8 modulators via GIRK flux, primary screen, cell-based, thallium flux, HTS (AID 488969)
# Conditions: HEK293 rat mGluR8, GIRK (G protein-gated inwardly rectifying potassium channel) thallium flux, FluoZin2; at 10 µM; stronger effect = higher value; submaximal glutamate (EC20) added with thallium
# Chain of UniProt P70579 (P70579 whole entry, looked up): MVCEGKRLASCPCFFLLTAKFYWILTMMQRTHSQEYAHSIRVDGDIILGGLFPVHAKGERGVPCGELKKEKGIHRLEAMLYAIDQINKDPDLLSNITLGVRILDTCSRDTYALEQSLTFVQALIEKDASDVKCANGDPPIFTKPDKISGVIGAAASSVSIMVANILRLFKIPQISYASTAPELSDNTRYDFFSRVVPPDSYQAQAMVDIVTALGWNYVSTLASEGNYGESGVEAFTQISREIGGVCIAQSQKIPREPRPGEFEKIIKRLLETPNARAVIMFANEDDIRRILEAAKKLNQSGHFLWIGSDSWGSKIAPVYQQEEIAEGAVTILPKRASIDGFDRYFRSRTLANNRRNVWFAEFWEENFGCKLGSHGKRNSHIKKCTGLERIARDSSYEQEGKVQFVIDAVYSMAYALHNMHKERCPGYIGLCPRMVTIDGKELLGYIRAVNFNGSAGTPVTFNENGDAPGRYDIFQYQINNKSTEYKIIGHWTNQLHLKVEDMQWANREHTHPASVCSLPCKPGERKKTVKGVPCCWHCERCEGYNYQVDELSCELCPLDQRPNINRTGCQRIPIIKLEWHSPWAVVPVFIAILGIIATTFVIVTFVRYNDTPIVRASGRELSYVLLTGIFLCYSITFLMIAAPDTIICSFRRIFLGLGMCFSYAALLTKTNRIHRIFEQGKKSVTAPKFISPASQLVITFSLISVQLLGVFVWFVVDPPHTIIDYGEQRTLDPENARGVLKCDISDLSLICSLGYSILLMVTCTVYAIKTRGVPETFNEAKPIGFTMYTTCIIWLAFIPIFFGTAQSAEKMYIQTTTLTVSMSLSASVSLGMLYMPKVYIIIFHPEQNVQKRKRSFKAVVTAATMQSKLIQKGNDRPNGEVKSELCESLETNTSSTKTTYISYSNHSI
row,SMILES,z-score
1,CCOC(=O)C1=C(CSc2nnnn2C)N(C)C(=O)NC1c1ccccc1 (stereo not given),0.291
2,O=C(Nc1ccc(NC(=O)C2CC2)nc1)c1cccc(F)c1,-0.42
3,COc1ccc(-c2noc(CSc3nc4ccccc4c(=O)n3-c3ccccc3)n2)cc1OC,0.0543
4,Cc1csc(SCC(=O)N2CCCC2)n1,-0.365
5,COc1ccc(N(C(=O)COc2ccc(C)cc2)S(=O)(=O)c2ccc(C)cc2)cc1,-0.00211
6,Cc1occc1C(=O)N1CCN(S(C)(=O)=O)CC1,0.0321
7,COc1ccc(-n2c(C)cc(/C=C3\C(=O)NN(c4ccccc4)C3=O)c2C)cc1,-0.0152
8,O=C(O)c1ccc(COc2ccccc2C=C2C(=O)c3ccccc3C2=O)cc1,-0.35
9,CC(=O)N(Cc1ccccc1)c1ncc2c(n1)c(=O)c(C#N)c1ccccn12,-0.93
10,COC(=O)Nc1ccccc1C(=O)N1CCCCC1,-0.347
11,O=S(=O)(NC1CCCCC1Sc1ncccn1)c1ccc(Cl)cc1 (stereo not given),0.2
12,COc1ccccc1-n1cc(C(=O)NCC(=O)N2CCN(c3ccccc3)CC2)c2ccccc2c1=O,-0.569
13,CCOC(=O)C1=C2N(C)c3ccccc3N2CCC1=O,1.09
14,Cc1[nH]c2ccccc2c1SCCNC(=O)c1ccc(Br)o1,-1.39
15,O=C(Nc1c(F)cc(F)cc1Br)C1CCCO1 (stereo not given),0.171
16,CCc1ccc(NC(=O)N(CCCN2CCOCC2)C(C)c2cc3cccc(OC)c3o2)cc1 (stereo not given),-0.158
17,O=S1(=O)CC(N2CCOCC2)c2ccccc21 (stereo not given),-0.0158
18,CS(=O)(=O)N(CC(=O)NCc1ccco1)c1cc(C(F)(F)F)ccc1Cl,0.181
19,COc1ccc([N+](=O)[O-])cc1NC(=O)C(C)Sc1ccc(C)cc1 (stereo not given),-0.545
20,CC(C)Oc1c(Cl)cc(CNC(C)(C)CO)cc1Cl,0.84
21,Cc1c(N=Cc2cccnc2)c(=O)n(-c2ccccc2)n1C,0.32
22,Cc1cccc2cc(COC(=O)C3CCCO3)c(=O)[nH]c12 (stereo not given),0.0109
23,Cc1cc(C)c2cc3c(N)c(C(=O)N4CCc5ccccc5C4)sc3nc2c1,-0.12
24,Cc1ccccc1NC(=O)CNc1ccccc1C(=O)NCc1ccco1,-0.253
25,Cc1cc2c(N=NC(=O)C3CC3c3ccccc3)c(O)[nH]c2cc1Br (stereo not given),-0.449
26,Cc1nc(N)sc1C(=O)Nc1ccccc1,0.00498
27,CCCC1C(c2ccccc2)C(C#N)(C#N)C2(C#N)CC1(N)NC2=O (stereo not given),-0.0727
28,O=C1N=C(N2CCN(c3ccccc3)CC2)S/C1=C/c1cccs1,-0.596

row,SMILES,z-score
1,Cc1sc2nc(SCC(=O)c3cccs3)n(Cc3ccco3)c(=O)c2c1C,-1.14
2,COc1ccc(C(NC(=O)c2ccc(-c3ccccc3)cc2)c2ccccc2)cc1 (stereo not given),-0.153
3,CCOc1ccc(-n2c(C)nnc2SCC(=O)N(CC)CC)cc1,0.0695
4,COc1cccc(C2SCC(=O)N2c2ccc(Cl)cc2)c1OC (stereo not given),0.269
5,CCOC(=O)CNC(=O)C1(c2ccccc2)CCCC1,0.107
6,COc1ccc(NC(=O)Cn2ncc(Cl)c(Cl)c2=O)cc1S(=O)(=O)N1CCOCC1,0.141
7,Nc1c(C(=O)Nc2ccc(S(=O)(=O)N3CCCC3)cc2)sc2nc3cc4c(cc3cc12)CCC4,-0.132
8,Cc1ccc2nc(-c3ccc(Br)o3)oc(=O)c2c1,-0.0466
9,Cc1ccc(C(=O)Nc2cc3c(oc2=O)CCCC3=O)cc1,-0.0458
10,CS(=O)(=O)n1nc(-c2ccc(Cl)cc2)nc1SCc1ccccc1,-0.0463
11,CCCC(=O)NCc1cc(-c2nn(C)c(=O)c3ccccc23)ccc1C,-0.113
12,COc1ccc(CC(=O)Nc2ccc(S(=O)(=O)NCC3CCCO3)cc2)cc1 (stereo not given),0.0963
13,Oc1c(C=Nc2cccc3nsnc23)ccc2ccccc12,-0.703
14,Cc1ccc(C)c(NC(=O)c2ccc(S(=O)(=O)C(F)F)cc2)c1,-0.276
15,CCOC(=O)C1CCCN(c2c(Nc3cccc(C)c3)c(=O)c2=O)C1 (stereo not given),-0.269
16,O=C1C(Cl)=C(NCC2CCCO2)C(=O)N1CCc1ccccc1 (stereo not given),0.0285
17,CC(=O)c1cc(-c2ccccc2)n(CC(=O)NCc2cccs2)c1C,0.0485
18,CCN1C(=O)CC(N2CCN(c3ccc(C(=O)c4ccccc4)cc3)CC2)C1=O (stereo not given),-0.153
19,CCCOC(=O)Nc1nc2ccccc2o1,-0.00547
20,CCOC(=O)N1CCN(C(=O)CSc2nc3c(cnn3-c3ccccc3)c(=O)[nH]2)CC1,-0.376
21,O=C1CC(O)(c2ccccc2)C(c2ccccc2)=C1c1ccccc1 (stereo not given),-0.112
22,CCCCN(CCCC)CCCNC(=O)CC1Oc2ccc(C)cc2NC1=O (stereo not given),1.11
23,Cc1cc2c(cc1C)C(c1ccccc1Br)CC(=O)N2 (stereo not given),0.617
24,COc1cc(/C=N/NC(=O)CCn2cnc(-c3ccccc3)c2-c2ccccc2)ccc1O,-0.819
25,Cc1nn(Cc2ccc(Cl)cc2Cl)c(C)c1NC(=O)NC12CC3CC(CC(C3)C1)C2,-0.166
26,COc1ccc(CNn2c(-c3cccc(C)c3)nc3ccccc3c2=O)cc1OC,-0.12
27,Cc1[nH]c2ccccc2c1/C=C/c1nc2ccccc2c(=O)n1-c1ccc([N+](=O)[O-])cc1,-0.603
